In all, about 150,000 compounds went through this assay and about 540 (0.36%) showed an effect of 50% or more. This is one part of the list.
These compounds were tested on Plasmodium falciparum (assay: Primary screen in NF54 nanoGlo assay, in single point, at 2uM, 72h; a lower Z score goes with more inhibition). Conditions: timepoint 72 hour.
Assay type: functional, Erythrocyte

| Structure (SMILES) | % Inhibition | Z score |
| --- | --- | --- |
| COc1ccc(F)cc1CNC1CCCC(S(C)(=O)=O)C1 (stereo not drawn) | 1% | -0.2 |
| COc1cc2nc(-c3ccc(F)c4cccnc34)nc(N)c2cc1OC | 96% | -14.63 |
| Cc1cccc(NC[C@H]2CCCN2C(=O)Cc2c[nH]c3ncccc23)n1 | -4% | 0.7 |
| CCOc1cccc(N2CCC(Nc3ccnc(C#N)n3)CC2)n1 | -2% | 0.33 |
| C[C@H](NC(=O)c1ccc(COc2ccc3ccccc3c2)o1)c1nc2ccccc2[nH]1 | -1% | 0.22 |
| CC1CCCCN1CCCNC(=O)C(C1CCCC1)N1CCN(C(=O)CC(C)(C)C)CC1 (stereo not drawn) | 14% | -2.43 |
| O=C(NC1CCN(C[C@H]2CCOC2)CC1)c1csc(-c2cnccn2)n1 | -9% | 1.69 |
| CCC1(CC)CC(=O)N(Cc2cccc(OC)n2)C1=O | -8% | 1.16 |
| COCCCN1CCC(Nc2ncnc3cc(C)c(C)cc23)CC1 | 96% | -16.62 |
| COc1ccc(OC)c2c(C)cc(NCC(C)(C)CN(C)C)nc12 | -9% | 1.52 |
| Cc1ccc2nccc(C(=O)N3CCC[C@H](Nc4ccc(F)c(F)c4)C3)c2c1 | 0% | 0.03 |
| CCN1CCN([C@H]2CCN(c3nccc4nccnc34)C2)CC1 | 2% | -0.37 |
| O=C(Nc1ccnn1Cc1ccccc1C(F)(F)F)N1CCC[C@H]1CO | -1% | 0.17 |
| CC(C)Oc1ccc(Br)c2cccnc12 | -6% | 0.92 |
| O[C@H]1C[C@@H](NCc2c(Cl)cncc2Cl)C1 | -7% | 1.37 |
| CN(C)C(=O)CN1CCCN(C(=O)c2ccc(-c3ccnc(N)n3)cc2)CC1 | -1% | 0.2 |
| CN(Cc1ccnc2ccccc12)C(=O)CCc1nnc(-c2ccc3c(c2)OCO3)o1 | 1% | -0.17 |
| CN1Cc2ccccc2C[C@@H]1CNc1nccc(-c2ccncc2)n1 | -11% | 1.72 |
| C[C@@H](C1CCN(c2nc(CCN)nc3ccccc23)CC1)N1CCN(C)CC1 | 7% | -1.41 |
| CCN1CCN(CCOc2ccccc2CN(C)Cc2cccc3cnccc23)CC1 | 7% | -1.54 |
| Cc1nc(C(C)N(C)C(=O)CCc2ccnn2C)c(C)s1 (stereo not drawn) | -1% | 0.19 |

| Structure (SMILES) | % Inhibition | Z score |
| --- | --- | --- |
| COc1cccc2[nH]cc(CC(=O)Nc3nc4ccccc4n3C3CCCC3)c12 | -8% | 1.31 |
| CN1CCC[C@H](CN2CCN(Cc3cc4n(n3)CCCNC4)CC2)C1 | 19% | -4.12 |
| Cn1ncc2cc(-c3ccnc4[nH]ccc34)ccc21 | -7% | 1.5 |
| O=C(N[C@H](CO)CC1CCCCC1)c1cccc(-c2ncnc3[nH]ccc23)c1 | -8% | 1.5 |
| COc1ccccc1Nc1ncc(CN2CCc3c(cnc(C)c3C#N)C2)s1 | -5% | 0.93 |
| NC(=O)c1ccc(OCCCN2CCCN(C3CCCC3)CC2)cc1 | 5% | -1.04 |
| CCC(CC)(CNc1nc(N)c2ccccc2n1)S(C)(=O)=O | 0% | 0.02 |
| Cc1cncc(Nc2cccc3ncccc23)n1 | -5% | 0.83 |
| OCc1cnc(NCCCN2CCN(Cc3ccccc3)CC2)cn1 | -4% | 0.71 |
| Cc1ccc(NCCCNC(=O)c2ccc3c(c2)[nH]c(=O)n3[C@H]2CC[C@H](O)CC2)nc1 | 6% | -0.97 |
| COc1ccc2ccc(N3CCC(NCCO)CC3)nc2c1 | -2% | 0.52 |
| Cc1cc(C(=O)N2CC(O)C(CS(=O)(=O)N(C)C)C2)n(C)n1 (stereo not drawn) | -5% | 1.06 |
| CCNc1ccnc(NCc2cccc(CO)c2)n1 | 0% | 0 |
| CN1CCN(c2ccc(NC(=O)[C@@H]3COCCN3CC(F)(F)F)nc2)CC1 | -11% | 1.66 |
| C[C@@H](c1cccc(-c2c[nH]c(C(=O)N3CCCCC3)c2)c1)N1CCCC1 | -4% | 0.83 |
| O=C([C@@H]1CCCN1C1CCNCC1)N1CCN(c2ccncc2)CC1 | 0% | 0.05 |
| CCCc1cccc(CNC2CCN(C3CCN(C)CC3)CC2)c1 | 76% | -16.27 |
| CC(=O)N(Cc1noc(C(C)C)n1)[C@H]1CCN(c2ncnc3[nH]ccc23)C1 | 0% | -0.03 |
| O=C(CCN1Cc2ccccc2C1=O)NCc1nc(-c2cnccn2)n[nH]1 | -2% | 0.33 |
| CN(C)c1ccc(N[C@H]2CCCN(C(=O)c3cnccc3N(C)C)CC2)cn1 | -7% | 1.32 |
| O=C1C[C@H](CNc2nccc(-c3ccccn3)n2)CN1C1CCCC1 | 1% | -0.17 |

| Structure (SMILES) | % Inhibition | Z score |
| --- | --- | --- |
| C1CC2CCC(NC3CCC4(CCNCC4)CC3)C2C1 (stereo not drawn) | -3% | 0.52 |
| CN(CCNS(C)(=O)=O)Cc1cn(C)nc1C(F)(F)F | -5% | 1.03 |
| COCC(=O)N1CCc2c(NC(=O)C(C)(C)F)cccc21 | -1% | 0.14 |
| O=C(c1nc2ccccn2c1Br)N1CC[C@@H](F)C1 | -4% | 0.89 |
| COCCN1CC[C@H](CN(C)c2ccnc3cc(Cl)ccc23)C1 | 98% | -17 |
| Cc1[nH]c2ccc(Cl)cc2c1CCNC(=O)[C@@H]1CC2(CCNCC2)CN1 | -8% | 1.39 |
| Cc1cc(C)c(-c2csc(Nc3ncnc4[nH]ncc34)n2)cc1C | 33% | -4.97 |
| Cc1cc2c(cc1C(=O)NCCCc1ccncc1)OCCO2 | -8% | 1.32 |
| CC[C@@H](CNc1cc(N2CCCCC2)ncn1)N1CCN(C)CC1 | -7% | 1.21 |
| COc1ccc(C(=O)Nc2ccc(-c3csc(Nc4cccnc4)n3)cc2)cc1F | -3% | 0.53 |
| O=S(=O)(NC[C@H]1CCOC2(CCC2)C1)c1ccccc1Br | -1% | 0.1 |
| COc1cc(N[C@H]2CCCN(Cc3cc(-c4cnn(C)c4)no3)C2)cc(OC)c1 | 4% | -0.64 |
| c1cn(-c2cc(NCc3ccnc(OC4CCCC4)c3)ncn2)cn1 | -6% | 1.1 |
| CC(=O)N1CCN(Cc2cccc(-c3cncc(-n4cnc(C)c4)c3)c2)CC1 | -6% | 1.18 |
| CC(C)NC(=O)c1ccnc(NCCCN2CCCC[C@@H]2CO)c1 | -7% | 1.08 |
| COc1cccc(OCc2cc(C(=O)N(C)Cc3nc4ccccc4o3)no2)c1 | -2% | 0.35 |
| OCC1CCCN1CCCCNC1CC2(CCC2)Oc2ccccc21 (stereo not drawn) | 23% | -5.06 |
| CCN(CCCN1CCCC1)C(=O)NCCN1CCC(N(C)C)CC1 | -10% | 2 |
| Brc1ccc(CNc2nc3ccccc3[nH]2)c2ncccc12 | 12% | -1.77 |
| Cc1ccc2[nH]c3c(c2c1)CCCC3NC1CC2CCC1O2 (stereo not drawn) | -7% | 1.25 |
| CN1CCN(CCNC(=O)C2CCN(Cc3cc4ccccc4n3Cc3cccc(F)c3)CC2)CC1 | 18% | -3.13 |

| Structure (SMILES) | % Inhibition | Z score |
| --- | --- | --- |
| O=C(c1ccc(N2CCC(NCC3(N4CCOCC4)CCCC3)CC2)cc1)N1CCC[C@H](O)C1 | 1% | -0.11 |
| c1nc(NC2COCC2N2CCCC2)c2ccsc2n1 (stereo not drawn) | 7% | -1.61 |
| c1ncc(N2CCN([C@H]3CCNC3)CC2)nc1OC1CCCCC1 | 4% | -0.81 |
| O=C(Nc1ccc(F)cc1)N[C@H]1CCN(c2cc(C(F)(F)F)nc(-c3ccncc3)n2)C1 | -4% | 0.63 |
| CN1CCC(N2CCC[C@H]2C(=O)Nc2ccc(-c3cccc(F)c3)cc2)CC1 | -6% | 1.03 |
| Clc1ccc2nccc(N3CCC(OC4CCOCC4)CC3)c2c1 | -1% | 0.22 |
| O=C(NCCCN1CCOCC1)[C@H](C1CCCC1)N1CCN(C(=O)c2ccc(Cl)c(Cl)c2)CC1 | 1% | -0.26 |
| CCc1c(C)nc(N)nc1NCCN(CC)CC | -3% | 0.53 |
| Cn1cccc1-c1cc(C(=O)NC2CCN(Cc3cccs3)CC2)n[nH]1 | -1% | 0.1 |
| c1ccc(CNc2ncnc3c2c(-c2ccccc2)c(-c2ccccc2)n3Cc2ccccc2)cc1 | 2% | -0.37 |
| CCN(C(C)=O)c1nc(C=Cc2nccc(-c3cnn(C)c3)n2)cs1 | 2% | -0.26 |
| COCCOCC(=O)Nc1ccc(-c2nc3cc(F)ccc3[nH]2)cc1 | -6% | 1.18 |
| C[C@@H](c1cccc(CN2CCN(CCN3CCOCC3)CC2)c1)N(C)C | 9% | -1.53 |
| CC(C)(C)NC(=O)CN1CCC(CNc2ncnc3c(F)cccc23)CC1 | -1% | 0.22 |
| Cc1cc(N2CCC(NC(=O)c3ccccc3-c3ncc(-c4ccccc4)o3)CC2)ncn1 | -29% | 5.1 |
| COc1cc(NC2CCN([C@H]3CCOC3)CC2)cc2cccnc12 | 13% | -2.52 |
| CCOc1cc(-c2c(-c3ccccc3)ncn2Cc2cccnc2)ccc1O | 1% | -0.17 |
| O=C(Nc1ccc(-n2cnc3ccccc32)cc1)N1CC2CCC1CNC2 (stereo not drawn) | 0% | -0.02 |
| Cc1noc(-c2ccc(S(=O)(=O)NC3CCS(=O)(=O)CC3)o2)c1C | -8% | 1.17 |
| COC[C@@H](O)CN1CCC(Nc2c(C#N)cnc3ccc(OC(F)F)cc23)CC1 | -7% | 1.3 |
| OC1CCC(CNC2CCN(C3CCCCC3)CC2)C1 (stereo not drawn) | 0% | -0.06 |
